From publication PMC4336329 (PLoS ONE, 2015)
Out of some 310,000 compounds screened, about 2,200 (0.71%) showed an effect of 50% or more. Effects have a minus sign here. The list shows a part of the results.

Target: human ether-à-go-go-related gene (hERG) potassium channel (human, UniProt Q12809)
Experiment: primary screen, population patch clamp on CHO cells stably expressing hERG

human ether-à-go-go-related gene (hERG) potassium channel, sequence (Q12809 whole entry, looked up): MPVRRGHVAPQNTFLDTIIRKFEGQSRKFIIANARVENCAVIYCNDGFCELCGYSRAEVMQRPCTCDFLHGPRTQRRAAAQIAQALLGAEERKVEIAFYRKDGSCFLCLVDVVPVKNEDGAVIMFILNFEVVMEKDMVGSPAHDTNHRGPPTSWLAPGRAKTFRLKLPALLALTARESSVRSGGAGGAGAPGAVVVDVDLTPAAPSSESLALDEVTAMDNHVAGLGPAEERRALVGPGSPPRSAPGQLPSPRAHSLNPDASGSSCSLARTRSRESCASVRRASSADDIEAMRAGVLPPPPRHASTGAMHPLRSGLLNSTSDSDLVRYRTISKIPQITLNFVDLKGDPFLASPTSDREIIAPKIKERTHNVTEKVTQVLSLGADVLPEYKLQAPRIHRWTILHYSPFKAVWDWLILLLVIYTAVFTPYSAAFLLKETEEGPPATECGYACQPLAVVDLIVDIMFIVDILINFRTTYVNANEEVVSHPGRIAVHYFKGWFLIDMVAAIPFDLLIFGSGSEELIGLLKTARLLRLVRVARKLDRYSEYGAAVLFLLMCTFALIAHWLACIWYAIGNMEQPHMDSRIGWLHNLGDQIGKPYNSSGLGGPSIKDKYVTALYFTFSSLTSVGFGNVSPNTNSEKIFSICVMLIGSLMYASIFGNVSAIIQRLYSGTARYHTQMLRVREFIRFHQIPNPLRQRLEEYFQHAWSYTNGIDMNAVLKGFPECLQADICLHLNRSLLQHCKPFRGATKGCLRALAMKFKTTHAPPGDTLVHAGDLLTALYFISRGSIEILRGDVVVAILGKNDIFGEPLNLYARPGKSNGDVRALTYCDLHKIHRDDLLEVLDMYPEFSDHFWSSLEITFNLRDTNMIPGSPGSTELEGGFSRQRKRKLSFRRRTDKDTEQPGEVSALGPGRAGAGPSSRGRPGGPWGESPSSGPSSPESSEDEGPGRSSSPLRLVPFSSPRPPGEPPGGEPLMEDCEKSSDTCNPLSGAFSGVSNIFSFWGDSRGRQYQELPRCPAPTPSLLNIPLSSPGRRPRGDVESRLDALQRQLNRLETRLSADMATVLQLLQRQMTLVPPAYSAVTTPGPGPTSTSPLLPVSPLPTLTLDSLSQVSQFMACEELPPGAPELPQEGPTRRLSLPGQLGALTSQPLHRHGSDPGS

SMILES | hERG current change (%, negative = inhibition) at 1uM
O=C(Nc1c(C(=O)N2CCC(N3CCCCC3)CC2)oc2ccccc12)c1c(F)cccc1F | -5.22%
CNC1=C([N+](=O)[O-])CC([N+](=O)[O-])=C(N2CCNCC2)N1C | 1.05%
O=C(Nc1cccn(Cc2c(Cl)cccc2Cl)c1=O)C1CC1 | 15.9%
COC(=O)C1C(=O)C2=C(CC1C)NC(C)=C(C(=O)OC(C)C)C2c1ccc(C)o1 (stereo not drawn) | 1.34%
O=C(CNC(=O)Cc1ccccc1)NCC(=O)OCC(=O)c1cccc2ccccc12 | -19.2%
CCOc1cccc(C(=O)NCc2ccccc2)c1 | 11%
O=S(=O)(c1ccc2c(c1)OCCO2)N1CCC(c2nc3ccccc3s2)CC1 | 9.7%
Cc1ccc(C(=O)N2CCCC(N(C)Cc3ccccc3)C2)s1 (stereo not drawn) | -9.48%
O=C(NC1(C(F)(F)F)NC(=O)N(Cc2ccccc2)C1=O)c1cccnc1 (stereo not drawn) | 13%
COc1ccc(S(=O)(=O)NCC(=O)NCc2cc(=O)n(C)c(=O)n2C)cc1C | 15.8%
Cc1nn(Cc2ccc(C(=O)N3CCOCC3)o2)c(C)c1Br | 9.67%
CC(OC(=O)c1cc2sccc2n1C)C(=O)NCC1CCCO1 (stereo not drawn) | 8.12%
CSc1nnc(C)c(=O)n1COC(=O)/C=C/c1ccc2c(c1)OCO2 | 5.62%
Clc1ccc2c(NCc3ccccc3)ccnc2c1 | -1.17%
COc1ccc(C2SCCN2C(=S)Nc2ccc(Cl)cc2)cc1 (stereo not drawn) | 18.3%
CC(=O)O.Fc1ccc(NC(=S)Nc2cccnc2)cc1 | 7.51%
Cc1ccc(C2=N/C(=C\N(C)C)C(=O)O2)cc1 | -0.584%
Cc1ccc(S(=O)(=O)N=Nc2c(O)[nH]c3ccccc23)cc1C | 9.86%
Nc1nc(-c2ccccc2)[nH]c(=O)c1N | 6.76%
COc1cccc(-c2nnc3sc(C4CCCCC4)nn23)c1 | 1.93%
COc1ccc(NC(=O)CSc2nnc(Cc3ccc(C)cc3)c(=O)n2N)cc1OC | 4%
CCOC(=O)CSc1nnc(CNC(=O)c2cccs2)n1-c1cc(C)ccc1C | 1.73%
CSc1ccccc1NC(=O)Nc1cccc(Cl)c1 | 0.949%

SMILES | hERG current change (%, negative = inhibition) at 1uM
CCN(CC(=O)NC(=O)NCc1ccco1)Cc1ccccc1 | 3.34%
CNC(=O)[C@@H]1C[C@H]1[C@@H](NC(=O)OCc1ccccc1)c1ccccc1 | -25.8%
COc1ccc(NC(=O)CN(C)S(=O)(=O)c2ccc(Cl)cc2)cn1 | 12.9%
CC(=O)NC(CC(=O)N(Cc1ccccc1)c1ccc(C)cc1)c1ccccc1 (stereo not drawn) | 9.42%
Oc1cc(OCc2ccccc2)ccc1-c1[nH]ncc1-c1ccccc1 | 6.25%
O=C(c1c[nH]c2ccc(S(=O)(=O)N3CCOCC3)cc2c1=O)N1CCCC1 | -2.34%
O=C(NCc1ccco1)C(=O)NCC1OCCN1S(=O)(=O)c1cc(F)ccc1F (stereo not drawn) | 13.3%
O=C(Oc1ccc(N2C(=O)CCC2=O)cc1)c1ccccc1 | 15%
CC1(C)CC(=O)C(C#N)=C(NCCCO)C1 | 14.6%
COc1ccc(C(=O)C2CCCN(Cc3cccn3-c3cccnc3)C2)cc1OC (stereo not drawn) | -34.9%
Cc1cc(C)n(CCN(C)C(=O)C2CCC(=O)N(CCc3cccc(F)c3)C2)n1 (stereo not drawn) | 7.21%
Cc1csc(NC(=O)C(F)(F)F)n1 | 10.5%
CCOCC(=O)Nc1cc(Cl)ccc1C | 19%
OCCN(CCO)c1ccc2ccccc2c1 | 10.5%
O=[N+]([O-])c1ccccc1/C=N/N1CCN(c2ccccn2)CC1 | 6.62%
O=C(c1ccc(-c2cccc(C(F)(F)F)c2)o1)N1CCCC(C(F)(F)F)C1 (stereo not drawn) | -0.174%
COc1ccc(C(=O)OCC(=O)NCC2CCCO2)c(F)c1 (stereo not drawn) | 14.6%
CN(C)c1ccc(NC(=O)CCn2c(=S)oc3ccccc32)cc1 | 17.2%
CCc1ccc(C(=O)NNc2ccc(Cl)cc2)cc1 | 8.45%
CN(Cc1ccccc1)Cc1nc2scc(-c3ccccc3)c2c(=O)[nH]1 | 18.7%
COc1cc([N+](=O)[O-])ccc1NC(=O)CCCOc1cc(C)ccc1C | -2.49%
O=C(NCC(O)c1ccccc1)c1cccc(S(=O)(=O)N2CCOCC2)c1 (stereo not drawn) | -1.89%
Cc1nn(-c2nc3ccccc3[nH]2)c(=O)c2ccccc12 | 5.64%

SMILES | hERG current change (%, negative = inhibition) at 1uM
CC1CCC2(CC1)NC(=O)N(CC(=O)N1CCN(C(=O)c3cccs3)CC1)C2=O (stereo not drawn) | 0.283%
Cn1c(=O)n(C)c2cc(NS(=O)(=O)c3ccc(F)cc3)ccc21 | 5.9%
CC1CN(/C(=N\S(=O)(=O)c2ccccc2)c2ccccc2)CC(C)O1 (stereo not drawn) | -5.56%
CCn1c(SCC(=O)c2ccc(C)cc2)nnc1-c1ccoc1C | 1.74%
CNC(=O)OCc1n(C)cc[n+]1C.[I-] | 7.16%
Cc1nn(-c2ccccc2)c2c1c(C)c(CCC(=O)NCC1CCCO1)c(=O)n2C (stereo not drawn) | 16.6%
COc1cc(C(=O)NCCCNc2nc3cc(C)c(C)cc3cc2C#N)cc(OC)c1OC | 23.9%
CC(NC(=O)c1ccccc1)c1nnc(SCC(=O)NC2=NCCS2)n1C (stereo not drawn) | 14.1%
Cc1cccc(C(=O)NC2CCN(S(=O)(=O)c3ccc(F)cc3)CC2)c1 | 16.2%
CN(C)S(=O)(=O)N(CCN1CCOCC1)Cc1ccccc1F | 10.7%
COc1ccc(N2CCN(Cc3nc4ccsc4c(=O)[nH]3)CC2)cc1 | 12.8%
COc1cccc(C(c2c(NC(=O)c3ccco3)sc(C)c2C)N2CCOCC2)c1 (stereo not drawn) | 5.05%
COc1ccc(NC(=O)CC2C(=O)N(c3ccc(OC)cc3)C(=O)N2C(C)C)cc1 (stereo not drawn) | -6.1%
O=C(Nc1ccccc1Cl)c1cc[n+]([O-])cc1 | 16.3%
COC(CNC(=O)c1ccc2c(c1)ncn2-c1ccc(F)cc1F)OC | 18.8%
COc1cccc(OC)c1C(=O)Nc1ccc2c(c1)Cc1ccccc1-2 | 14.6%
CC(C)On1c(SC(C)C)nc2ccccc2c1=O | 6.43%
CNC(=O)c1c(NC(=O)c2ccc(S(=O)(=O)N3CCCC3)cc2)sc2c1CCN(C(C)C)C2 | 11.9%
CC(OC(=O)c1cccs1)C(=O)NCc1cccs1 (stereo not drawn) | 3.43%
C=CCNCCCCOc1cccc(Br)c1.O=C(O)C(=O)O | 19%
CCOC(=O)c1c(C2CC2)csc1NC(C)=O | -12.7%
Cc1cc(C)c(OCC(=O)N(Cc2ccccc2)C2CCS(=O)(=O)C2)c(C)c1 (stereo not drawn) | 2.23%
CCN(C(=O)COC(=O)c1cc2c(s1)CCCCC2)C1CCS(=O)(=O)C1 (stereo not drawn) | 4.31%

SMILES | hERG current change (%, negative = inhibition) at 1uM
CC(C)c1cc(CN2CCOCC2)cc(C(C)C)c1O | 10.3%
O=C(c1ccc(CS(=O)(=O)c2ccccc2)o1)N1CCOCC1 | 15.8%
CC(=O)NC(CC(=O)Nc1nc(-c2ccccc2)c(C(C)=O)s1)c1ccccc1 (stereo not drawn) | 6.94%
Cl.c1ccc2c(c1)OCC(C1=NCCN1)O2 (stereo not drawn) | 9.14%
CCC(C)N1CCN(C(=O)c2cc(OC)cc(OC)c2)CC1.O=C(O)C(=O)O (stereo not drawn) | 16.2%
C=CCn1c(SCC(=O)NCc2ccc3c(c2)OCO3)nnc1C1CCCCC1 | -8.39%
COc1ccc(S(=O)(=O)N2CCN(C(=O)C3CCC3)CC2)cc1 | 6.11%
Cc1cc(NC(=O)COC(=O)CSc2nc3cc(Cl)ccc3n2Cc2ccccc2)no1 | -1.77%
N=C1/C(=C\c2ccc(OC(=O)c3ccccc3)cc2)C(=O)N=C2SC(N3CCOCC3)=NN12 | 8.75%
CCOc1ccc(/C=C2\SC(=S)N(CCC(=O)Nc3ccc(C(=O)O)cc3)C2=O)cc1 | 22.1%
O=C(CCS(=O)(=O)c1cccc2nsnc12)NC1CCCCC1 | 12.4%
CCOC(=O)C(O)(c1ccc(NC(=S)NC(=O)c2ccc(Cl)cc2Cl)cc1)C(F)(F)F (stereo not drawn) | 22.8%
CCOC(=O)C1(CC2CC2)CCN(Cc2cnc(-c3ccccc3C)nc2)CC1 | 2.09%
O=C(O)c1cc(Cl)c(Cl)cc1C(=O)Nc1cccc2ncccc12 | -1.28%
Cn1c(=O)oc2cc(S(=O)(=O)CCC(=O)NCCc3ccccc3)ccc21 | 16.6%
CCOc1ccc(CCNc2nc3c(c(=O)n(C)c(=O)n3C)n2CC)cc1OCC | 13.3%
COc1ccc(/C=C2\SC(=S)N(CC(=O)Nc3nnc(C)s3)C2=O)cc1 | 13%
Cc1cc(C)n2nc(CCCO)nc2n1 | 21.8%
COc1ccc(/C=C(\NC(=O)c2ccc(C)cc2)C(=O)NCCCn2ccnc2)cc1 | -91.7%
CCOc1cccc2sc(N(CCCN(C)C)C(=O)c3ccc(C(=O)c4ccccc4)cc3)nc12.Cl | -29.5%
C(=N\N(c1ccccc1)c1ccccc1)/c1ccc(N2CCOCC2)s1 | 5.76%
